According to the antibiotic and cytotoxicity screens of Wong et al. (2023):
The list shows a part of the results.

What was measured:
HSkMC = human skeletal muscle cells; assay: cytotoxicity call (relative viability < 0.9); settings: 10 µM
HepG2 = assay: cytotoxicity call (relative viability < 0.9); settings: 10 µM
S. aureus RN4220 = assay: growth inhibition call (relative growth <= 0.2); settings: 50 µM

Cc1ccc(S(=O)(=O)Nc2cc([C@@H](C(=O)OC(C)C)C(=O)C(F)(F)F)c(O)c3ccccc23)c(C)c1
inactive: cytotoxicity call (HSkMC) | cytotoxicity call (HepG2) | growth inhibition call (S. aureus RN4220)

CC(C)(C)CC(C)(C)c1cc(Cc2cc(C(C)(C)CC(C)(C)C)cc(-n3nc4ccccc4n3)c2O)c(O)c(-n2nc3ccccc3n2)c1
inactive: cytotoxicity call (HSkMC) | cytotoxicity call (HepG2) | growth inhibition call (S. aureus RN4220)

CCS(=O)(=O)N1CC[C@]2(CC1)CN([C@@H](CO)c1[nH]c3cc(ccc3c12)OC)S(=O)(=O)c1cccc(c1)OC
inactive: cytotoxicity call (HSkMC) | cytotoxicity call (HepG2) | growth inhibition call (S. aureus RN4220)

CCN(CC)S(=O)(=O)c1nnc[nH]1
inactive: cytotoxicity call (HSkMC) | cytotoxicity call (HepG2) | growth inhibition call (S. aureus RN4220)

C[C@@H]1CN([C@@H](C)CO)S(=O)(=O)c2ccc(C#C[C@@H](C)O)cc2O[C@@H]1CN(C)C(=O)Nc1ccccc1
inactive: cytotoxicity call (HSkMC) | cytotoxicity call (HepG2) | growth inhibition call (S. aureus RN4220)

CC(C)NC(=O)Nc1cccc2c1O[C@@H](CN(C)Cc1ccc3c(c1)OCO3)[C@H](C)CN([C@@H](C)CO)C2=O
inactive: cytotoxicity call (HSkMC) | cytotoxicity call (HepG2) | growth inhibition call (S. aureus RN4220)

C[C@H](CO)N1C[C@H](C)[C@H](CN(C)C(=O)Cc2ccccc2)OCCCC[C@H](C)Oc2ccc(NS(=O)(=O)c3ccc(F)cc3)cc2C1=O
inactive: cytotoxicity call (HSkMC) | cytotoxicity call (HepG2) | growth inhibition call (S. aureus RN4220)

C[C@H]1CN([C@@H](C)CO)C(=O)Cc2cc(NS(C)(=O)=O)ccc2O[C@@H]1CN(C)S(=O)(=O)c1ccccc1
inactive: cytotoxicity call (HSkMC) | cytotoxicity call (HepG2) | growth inhibition call (S. aureus RN4220)

C[C@@H]1CCCCO[C@H](CN(C)S(=O)(=O)c2cccs2)[C@@H](C)CN([C@@H](C)CO)C(=O)c2cc(NC(=O)c3ccccc3)ccc2O1
inactive: cytotoxicity call (HSkMC) | cytotoxicity call (HepG2) | growth inhibition call (S. aureus RN4220)

OC[C@@H]1CCCCN1
inactive: cytotoxicity call (HSkMC) | cytotoxicity call (HepG2) | growth inhibition call (S. aureus RN4220)

C[C@@H]1CN([C@@H](C)CO)C(=O)c2cc(C#CCN(C)C)cnc2O[C@@H]1CN(C)C(=O)Nc1cccc(F)c1
inactive: cytotoxicity call (HSkMC) | cytotoxicity call (HepG2) | growth inhibition call (S. aureus RN4220)

NNC(=O)[C@@H]1C(c2ccccc2)[C@H]1C(=O)NN (some centres undefined)
inactive: cytotoxicity call (HSkMC) | cytotoxicity call (HepG2) | growth inhibition call (S. aureus RN4220)

COc1ccc(CN(C)C[C@H]2Oc3c(NC(=O)C4CCOCC4)cccc3C(=O)N([C@H](C)CO)C[C@@H]2C)cc1
inactive: cytotoxicity call (HSkMC) | cytotoxicity call (HepG2) | growth inhibition call (S. aureus RN4220)

COc1ccc(S(=O)(=O)Nc2ccc3c(c2)C(=O)N([C@@H](C)CO)C[C@H](C)[C@@H](CN(C)C(=O)C2CCCCC2)OCCCC[C@@H](C)O3)cc1
inactive: cytotoxicity call (HSkMC) | cytotoxicity call (HepG2) | growth inhibition call (S. aureus RN4220)

C[C@H](CO)N1C[C@H](C)[C@H](CN(C)Cc2ccc(C(=O)Nc3ccccc3N)cc2)Oc2c(NC(=O)Nc3ccccc3)cccc2C1=O
inactive: cytotoxicity call (HSkMC) | cytotoxicity call (HepG2) | growth inhibition call (S. aureus RN4220)

C[C@@H]1CN([C@H](C)CO)C(=O)Cc2cc(NC(=O)CCCN(C)C)ccc2O[C@@H]1CN(C)S(=O)(=O)c1ccccc1
inactive: cytotoxicity call (HSkMC) | cytotoxicity call (HepG2) | growth inhibition call (S. aureus RN4220)

COc1cccc(-c2ccc3c(c2)O[C@H](CN(C)Cc2cncnc2)[C@@H](C)CN([C@@H](C)CO)S3(=O)=O)c1
inactive: cytotoxicity call (HSkMC) | cytotoxicity call (HepG2) | growth inhibition call (S. aureus RN4220)

CC(C)NC(=O)Nc1ccc2c(c1)C(=O)N([C@@H](C)CO)C[C@@H](C)[C@@H](CN(C)Cc1ccc(C(=O)O)cc1)O2
inactive: cytotoxicity call (HSkMC) | cytotoxicity call (HepG2) | growth inhibition call (S. aureus RN4220)

COC(=O)C[C@H]1CC[C@H]2[C@@H](COC[C@H](O)CN2S(=O)(=O)c2ccccc2C)O1
inactive: cytotoxicity call (HSkMC) | cytotoxicity call (HepG2) | growth inhibition call (S. aureus RN4220)

Cc1noc(C)c1NC(=O)N(C)C[C@H]1Oc2c(NC(=O)Nc3ccc(C(F)(F)F)cc3)cccc2C(=O)N([C@H](C)CO)C[C@H]1C
inactive: cytotoxicity call (HSkMC) | cytotoxicity call (HepG2) | growth inhibition call (S. aureus RN4220)

C[C@H](CO)N1C[C@H](C)[C@@H](CN(C)C(=O)Nc2ccc(C(F)(F)F)cc2)Oc2ccc(NS(=O)(=O)c3ccc(F)cc3)cc2C1=O
inactive: cytotoxicity call (HSkMC) | cytotoxicity call (HepG2) | growth inhibition call (S. aureus RN4220)

O=C(C[C@H]1CC[C@H](NC(=O)CN2CCOCC2)[C@H](CO)O1)NCCc1ccccc1
inactive: cytotoxicity call (HSkMC) | cytotoxicity call (HepG2) | growth inhibition call (S. aureus RN4220)

C[C@@H]1CN([C@@H](C)CO)C(=O)c2cc(/C=C/c3ccccc3)cnc2O[C@@H]1CN(C)C(=O)C1CCOCC1
inactive: cytotoxicity call (HSkMC) | cytotoxicity call (HepG2) | growth inhibition call (S. aureus RN4220)

C[C@@H]1CN([C@@H](C)CO)C(=O)Cc2cc(NC(=O)c3ccncc3)ccc2O[C@@H]1CN(C)S(C)(=O)=O
inactive: cytotoxicity call (HSkMC) | cytotoxicity call (HepG2) | growth inhibition call (S. aureus RN4220)

N#CC1CC2CC2N1C(=O)C(N)C12CC3CC(CC(O)(C3)C1)C2 (centres undefined)
inactive: cytotoxicity call (HSkMC) | cytotoxicity call (HepG2) | growth inhibition call (S. aureus RN4220)

Cc1noc(C)c1NC(=O)Nc1ccc2c(c1)C(=O)N([C@H](C)CO)C[C@H](C)[C@H](CN(C)C(=O)Nc1ccc(C(F)(F)F)cc1)OCCCC[C@@H](C)O2
inactive: cytotoxicity call (HSkMC) | cytotoxicity call (HepG2) | growth inhibition call (S. aureus RN4220)

O=C(C[C@@H]1C[C@H]2c3cc(NC(=O)c4ccc5c(c4)OCO5)ccc3O[C@H]2[C@@H](CO)O1)NCCN1CCCCC1
inactive: cytotoxicity call (HSkMC) | cytotoxicity call (HepG2) | growth inhibition call (S. aureus RN4220)

COc1ccc(NC(=O)Nc2ccc3c(c2)CC(=O)N([C@H](C)CO)C[C@@H](C)[C@H](CN(C)C(=O)Nc2cccc4ccccc24)O3)cc1
inactive: cytotoxicity call (HSkMC) | cytotoxicity call (HepG2) | growth inhibition call (S. aureus RN4220)
